{"source": "the supplement of paper PMC8183993", "note": "Counter-ions that a name gives are not always drawn. ± gives the standard deviation of the averaged measurements. The full ranking holds about 3,100 compounds; the median of “mean cytoplasmic OPP incorporation (global translation) relative to DMSO” is about 100, and the lowest 2% start at about 56. The list shows a part of the results."}
{"tested_on": "U2OS", "assay": "mean cytoplasmic OPP incorporation (global translation) relative to DMSO (% of DMSO); higher = more protein synthesis", "conditions": "10 µM; 24 h", "description": "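Primary image-based screen in U2OS cells: compounds at 10 uM for 24 h, then a 1 h o-propargyl-puromycin (OPP) pulse, click labelling, and high-throughput microscopy. Mean cytoplasmic OPP intensity and nuclei count were normalised to DMSO wells within each plate (DMSO = 100) and averaged over triplicate plates.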"}
{"molecule": "C[C@]12CC[C@@H]3c4ccc(O)cc4C[C@@H](CCCCCCCCC[S+]([O-])CCCC(F)(F)C(F)(F)F)[C@H]3[C@@H]1CC[C@@H]2O", "note": "(stereo partly specified)", "mean cytoplasmic OPP incorporation": 122}
{"molecule": "C[C@]12CC[C@@H]3c4ccc(O)cc4C[C@@H](CCCCCCCCC[S+]([O-])CCCC(F)(F)C(F)(F)F)[C@H]3[C@@H]1CC[C@@H]2O", "note": "(stereo partly specified) [Fulvestrant (Faslodex)]", "mean cytoplasmic OPP incorporation": 113}
{"molecule": "C[C@]12CC[C@@H]3c4ccc(O)cc4C[C@@H](CCCCCCCCC[S+]([O-])CCCC(F)(F)C(F)(F)F)[C@H]3[C@@H]1CC[C@@H]2O", "note": "(stereo partly specified) [Fulvestrant]", "mean cytoplasmic OPP incorporation": 114}
{"molecule": "COc1cc(CNC(=O)CCCC/C=C/C(C)C)ccc1O", "note": "[Capsaicin]", "mean cytoplasmic OPP incorporation": "94.2 ± 8.7"}
{"molecule": "Clc1ccc(C2(c3ccc(-c4cn[nH]c4)cc3)CCNCC2)cc1", "mean cytoplasmic OPP incorporation": 129}
{"molecule": "NC1(Cc2ccc(Cl)cc2)CCN(c2ncnc3[nH]ccc23)CC1", "mean cytoplasmic OPP incorporation": 93.7}
{"molecule": "Cc1cc(C(C)Nc2ccccc2)c2nc(N3CCOCC3)cc(=O)n2c1", "note": "(stereo unspecified)", "mean cytoplasmic OPP incorporation": 113}
{"molecule": "Clc1ccc2nsnc2c1NC1=NCCN1", "note": "[Tizanidine HCl]", "mean cytoplasmic OPP incorporation": 97.6}
{"molecule": "Cc1cc(Nc2cc(N3CCN(C)CC3)nc(Sc3ccc(NC(=O)C4CC4)cc3)n2)n[nH]1", "note": "[VX-680 (MK-0457, Tozasertib)]", "mean cytoplasmic OPP incorporation": 92.6}
{"molecule": "CC(C)Oc1ccc2c(=O)c(-c3ccccc3)coc2c1", "note": "[Ipriflavone]", "mean cytoplasmic OPP incorporation": 103}
{"molecule": "CC(=O)Nc1nnc(S(N)(=O)=O)s1", "note": "[Acetazolamide]", "mean cytoplasmic OPP incorporation": 101}
{"molecule": "CCCCOc1ccc(C(=O)Nc2ccc(F)cc2F)cc1", "mean cytoplasmic OPP incorporation": 98}
{"molecule": "Nc1nc(OCc2cc(Br)cs2)c2[nH]cnc2n1", "note": "[Lomeguatrib]", "mean cytoplasmic OPP incorporation": 85.6}
{"molecule": "Cc1cc2cc3c(C)cc(=O)oc3c(C)c2o1", "note": "[Trioxsalen]", "mean cytoplasmic OPP incorporation": 104}
{"molecule": "CCCCOc1cc(C(=O)OCCN(CC)CC)ccc1N", "note": "[Benoxinate hydrochloride]", "mean cytoplasmic OPP incorporation": 96.7}
{"molecule": "CC(C)c1ccccc1S(=O)(=O)c1cc(N)c2ncccc2c1[N+](=O)[O-]", "mean cytoplasmic OPP incorporation": 89.5}
{"molecule": "CCOC(=O)C1=C(N)Oc2ccc(Br)cc2C1C(C#N)C(=O)OCC", "note": "(stereo unspecified)", "mean cytoplasmic OPP incorporation": "98.7 ± 2.9"}
{"molecule": "CC#C[C@]1(O)CC[C@H]2[C@@H]3CCC4=CC(=O)CCC4=C3[C@@H](c3ccc(N(C)C)cc3)C[C@@]21C", "note": "[Mifepristone]", "mean cytoplasmic OPP incorporation": "109 ± 8.7"}
{"molecule": "CC#C[C@]1(O)CC[C@H]2[C@@H]3CCC4=CC(=O)CCC4=C3[C@@H](c3ccc(N(C)C)cc3)C[C@@]21C", "note": "[Mifepristone (Mifeprex)]", "mean cytoplasmic OPP incorporation": 110}
{"molecule": "COc1cc(SC)ccc1C(=O)N1CCC(Cc2ccccc2)CC1", "mean cytoplasmic OPP incorporation": 98}
{"molecule": "CC[C@@H]1C(=O)N(C)c2cnc(Nc3ccc(C(=O)N[C@H]4CC[C@H](N5CCN(CC6CC6)CC5)CC4)cc3OC)nc2N1C(C)C", "note": "[BI6727 (Volasertib)]", "mean cytoplasmic OPP incorporation": 130}
